The values that follow come from PMC11995724, “Antibiotic target discovery by integrated phenotypic and activity-based profiling of electrophilic fragments” (Cell chemical biology, 2025).

Hit rate of the full screen: of about 3,200 compounds, about 110 (3.4%) showed an effect of 50% or more. The list shows a part of the results.

The experiment deals with T1, V. cholerae SAD30.
T1 construct: SAD30
Also noted: species or system S. aureus MSSA476 (TSB) or V. cholerae SAD30 (LB); 384-well bacterial growth screen at 25 uM, OD600 relative to DMSO control. The conditions noted are these: relative growth, OD600, LB; 25 µM; inhibitor.
Regarding `CN(C(=O)CCl)C(c1ccc(Cl)cc1)C(F)(F)F` (stereo not shown) [7-J16, 2-chloro-N-[1-(4-chlorophenyl)-2,2,2-trifluoroethyl]-N-methylacetamide], the “% of control remaining” value came out at 81.8107%.
Take `CNC(=O)CC(NC(=O)CCl)c1ccc(F)cc1F` (stereo not shown) [4-I16, 3-(2-chloroacetamido)-3-(2,4-difluorophenyl)-N-methylpropanamide]: the “% of control remaining” value worked out at 98.6845%.
`COc1ccc(C=C(C#N)C(=O)Nc2cc(C)ccc2C)cc1Cl` [9-B22, 3-(3-chloro-4-methoxyphenyl)-2-cyano-N-(2,5-dimethylphenyl)prop-2-enamide]: the “% of control remaining” value is recorded as 94.6975%.
To `C=CC(=O)N1CCc2c(ncn2-c2ccccc2)C1` [3-N09, 1-{1-phenyl-1H,4H,5H,6H,7H-imidazo[4,5-c]pyridin-5-yl}prop-2-en-1-one] belongs 95.0891%.
As for `COc1ccc(Cl)cc1N1C(=O)C=CC1=O` [10-K10, 1-(5-chloro-2-methoxyphenyl)-2,5-dihydro-1H-pyrrole-2,5-dione], the “% of control remaining” value is recorded as 24.1574%.
Consider `C=CC(=O)NCc1ccc(C(=O)N2CCC(c3ccn[nH]3)CC2)cc1` [3-K08, N-({4-[4-(1H-pyrazol-5-yl)piperidine-1-carbonyl]phenyl}methyl)prop-2-enamide], for which the “% of control remaining” value was found to be 92.0897%.
On to `CCOC(=O)c1c(C)[nH]c(C(=O)C(C)Cl)c1C` (stereo not shown) [10-B22, ethyl 5-(2-chloropropanoyl)-2,4-dimethyl-1H-pyrrole-3-carboxylate], for which the “% of control remaining” value worked out at 103.799%.
Regarding `C=CC(=O)N(Cc1nonc1C)CC1C(C)=CCCC1C` (stereo not shown) [1-F15, N-[(2,6-dimethylcyclohex-2-en-1-yl)methyl]-N-[(4-methyl-1,2,5-oxadiazol-3-yl)methyl]prop-2-enamide], the “% of control remaining” value is listed as 66.9656%.
Turning to `C=CC(=O)N1CCC(C(=O)NCc2cccc(Cl)c2F)CC1` [3-N12, N-[(3-chloro-2-fluorophenyl)methyl]-1-(prop-2-enoyl)piperidine-4-carboxamide], the “% of control remaining” value is given as 95.7949%.
Regarding `COc1cc(Cl)c(C)cc1NC(=O)C(C)Cl` (stereo not shown) [6-C15, 2-chloro-N-(4-chloro-2-methoxy-5-methylphenyl)propanamide], the “% of control remaining” value turned out to be 86.6054%.
With `CC(Cl)C(=O)NC(C)c1cnn(CC2CCC2)c1` (stereo not shown) [5-L15, 2-chloro-N-{1-[1-(cyclobutylmethyl)-1H-pyrazol-4-yl]ethyl}propanamide] the figure was 98.0141%; with `C=CC(=O)NCC1=NOCC1` [3-G16, N-[(4,5-dihydro-1,2-oxazol-3-yl)methyl]prop-2-enamide], 88.3845%.
With `CN(C)S(=O)(=O)c1cccc(NC(=O)CCl)c1` [4-J08, 2-chloro-N-[3-(dimethylsulfamoyl)phenyl]acetamide] the figure was 94.3714%; with `C=CC(=O)N(C)Cc1conc1CC` [2-O15, N-[(3-ethyl-1,2-oxazol-4-yl)methyl]-N-methylprop-2-enamide], 88.9607%; with `CC(NC(=O)CCl)c1nnc(-c2cccc(F)c2)s1` (stereo not shown) [5-F13, 2-chloro-N-{1-[5-(3-fluorophenyl)-1,3,4-thiadiazol-2-yl]ethyl}acetamide], 96.501%.
To `Cc1cc(C)c(C(=O)CCl)c(C)c1` [10-C08, 2-chloro-1-(2,4,6-trimethylphenyl)ethan-1-one] belongs 98.9675%; to `CC(C)(C)c1ccc(C=C(C#N)C(=O)NCc2ccco2)cc1` [8-L14, 3-(4-tert-butylphenyl)-2-cyano-N-[(furan-2-yl)methyl]prop-2-enamide], 61.5228%; to `O=C(CCl)NCc1ccc(NC(=O)C2CC2)cc1` [6-E20, N-{4-[(2-chloroacetamido)methyl]phenyl}cyclopropanecarboxamide], 93.1273%.
Regarding `O=C(CCl)Nc1cc(Cl)ccc1Oc1ccccc1` [5-G19, 2-chloro-N-(5-chloro-2-phenoxyphenyl)acetamide], the “% of control remaining” value amounted to 86.75%.
For `CCOc1ccccc1NC(=O)C(C#N)=Cc1ccc2c(c1)OCO2` [9-P05, 3-(1,3-dioxaindan-5-yl)-2-cyano-N-(2-ethoxyphenyl)prop-2-enamide], the “% of control remaining” value is listed as 97.6886%.
With `C=CC(=O)NCCn1cnc2ccsc2c1=O` [2-N15, N-(2-{4-oxo-3H,4H-thieno[3,2-d]pyrimidin-3-yl}ethyl)prop-2-enamide] the figure was 91.5854%; with `Cc1ccccc1NC(=O)C(C#N)=Cc1ccc(N2CCCCC2)cc1` [9-E21, 2-cyano-N-(2-methylphenyl)-3-[4-(piperidin-1-yl)phenyl]prop-2-enamide], 90.7546%.
`CCOc1ccccc1NC(=O)C(C#N)=Cc1c(C)[nH]c2ccccc12` [9-A06, 2-cyano-N-(2-ethoxyphenyl)-3-(2-methyl-1H-indol-3-yl)prop-2-enamide]: the “% of control remaining” value turned out to be 88.7152%.
To `CC(Cl)C(=O)N1CCCC1CC(=O)c1cnn(C)c1` (stereo not shown) [6-D16, 2-chloro-1-{2-[2-(1-methyl-1H-pyrazol-4-yl)-2-oxoethyl]pyrrolidin-1-yl}propan-1-one] belongs 85.2403%; to `O=C(CCl)NC1CCS(=O)(=O)CC1` [6-M08, 2-chloro-N-(1,1-dioxo-1lambda6-thian-4-yl)acetamide], 93.279%; to `COc1ccc(N(C(=O)CCl)C2CCS(=O)(=O)C2)cc1` (stereo not shown) [5-I20, 2-chloro-N-(1,1-dioxo-1lambda6-thiolan-3-yl)-N-(4-methoxyphenyl)acetamide], 103.898%.
Consider `CCc1ccc(C(=O)CCl)cc1` [10-F18, 2-chloro-1-(4-ethylphenyl)ethan-1-one], for which the “% of control remaining” value came to 26.1835%.
On to `C=CC(=O)N1CCC(C(=O)NC2CC2(C)C)CC1` (stereo not shown) [3-C07, N-(2,2-dimethylcyclopropyl)-1-(prop-2-enoyl)piperidine-4-carboxamide], for which the “% of control remaining” value amounted to 110.086%.
With `CCCC(=O)Nc1ccc(C(=O)C(C)Cl)cc1` (stereo not shown) [10-O06, N-[4-(2-chloropropanoyl)phenyl]butanamide] the figure was 98.8116%.
To `CC(Cl)C(=O)N(Cc1ccccc1)C1C=CS(=O)(=O)C1` (stereo not shown) [6-D22, N-benzyl-2-chloro-N-(1,1-dioxo-2,3-dihydro-1lambda6-thiophen-3-yl)propanamide] belongs 97.2225%.
With `O=C(CCl)Nc1cccc(OCc2ccccc2)c1` [5-I04, N-[3-(benzyloxy)phenyl]-2-chloroacetamide] the figure was 87.4225%; with `N#CC(=Cc1cnn(Cc2ccccc2)c1)C(=O)NC1CCCC1` [9-O14, 3-(1-benzyl-1H-pyrazol-4-yl)-2-cyano-N-cyclopentylprop-2-enamide], 76.8865%; with `C=CC(=O)NC(C)Cn1nc(C)cc1C` (stereo not shown) [1-F10, N-[1-(3,5-dimethyl-1H-pyrazol-1-yl)propan-2-yl]prop-2-enamide], 64.7694%.
For the molecule `C=CC(NC(=O)CCl)C1CCOCC1` (stereo not shown) [5-N13, 2-chloro-N-[1-(oxan-4-yl)prop-2-en-1-yl]acetamide], the “% of control remaining” value was 98.8547%.
To `COc1cc(C=C(C#N)C(=O)Nc2cccc(Cl)c2)cc(O)c1O` [9-G20, N-(3-chlorophenyl)-2-cyano-3-(3,4-dihydroxy-5-methoxyphenyl)prop-2-enamide] belongs 61.1149%; to `Cc1ccc(NC(=O)C(C#N)=CC2=Cc3ccccc3OC2)cc1` [9-B19, 3-(2H-chromen-3-yl)-2-cyano-N-(4-methylphenyl)prop-2-enamide], 85.588%; to `C=CC(=O)NCC(=O)c1scc(C)c1Cl` [1-D16, N-[2-(3-chloro-4-methylthiophen-2-yl)-2-oxoethyl]prop-2-enamide], 44.1609%.
Consider `C=CC(=O)Nc1ccccc1Sc1nncs1` [1-G04, N-[2-(1,3,4-thiadiazol-2-ylsulfanyl)phenyl]prop-2-enamide], for which the “% of control remaining” value is reported as 100.149%.
To `C=CC(=O)N1CCC[C@H]1c1ccon1` [2-G03, 1-[(2S)-2-(1,2-oxazol-3-yl)pyrrolidin-1-yl]prop-2-en-1-one] belongs 108.26%; to `C=CCNC(=O)C(C#N)=Cc1ccccc1[N+](=O)[O-]` [8-E09, 2-cyano-3-(2-nitrophenyl)-N-(prop-2-en-1-yl)prop-2-enamide], 71.584%.
To `O=C(CCl)NCc1ccnn1C1CCCC1` [7-H08, 2-chloro-N-[(1-cyclopentyl-1H-pyrazol-5-yl)methyl]acetamide] belongs 83.7932%; to `CCN(Cc1ccc(Cl)s1)C(=O)CCl` [6-M11, 2-chloro-N-[(5-chlorothiophen-2-yl)methyl]-N-ethylacetamide], 83.1169%; to `CC(CO)N(Cc1ccccc1Cl)C(=O)CCl` (stereo not shown) [6-D17, 2-chloro-N-[(2-chlorophenyl)methyl]-N-(1-hydroxypropan-2-yl)acetamide], 94.0373%.
As for `CC(Cl)C(=O)NC(C)c1ccn(C)n1` (stereo not shown) [6-B16, 2-chloro-N-[1-(1-methyl-1H-pyrazol-3-yl)ethyl]propanamide], the “% of control remaining” value is listed as 86.4537%.
For `CC(=O)NCCc1ccc(C(=O)CCl)s1` [10-P03, N-{2-[5-(2-chloroacetyl)thiophen-2-yl]ethyl}acetamide], the “% of control remaining” value is listed as 110.812%.
To `COc1ccc(C(=O)CCl)c2c1C(=O)CO2` [10-N05, 7-(2-chloroacetyl)-4-methoxy-2,3-dihydro-1-benzofuran-3-one] belongs 105.981%.
